# Test results: the supplement of paper PMC9446081
# Among all 39,000 compounds or so, about 220 (0.56%) showed activity. Some of the results follow.
# Test system: Escherichia coli K-12 BW25113
# Assay: relative growth (OD600 normalised to plate interquartile mean) (fraction); higher = less growth inhibition, active = 0.2 or less
# Settings: 50 µM; LB; incubation time: overnight (16-24 h)
# 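Also: static incubation at 37 °C against the wild-type strain, values averaged over two biological replicates.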
row,SMILES,relative growth
1,COC(=O)c1c(CC[C@@H](CO)NC(=O)N[C@@H](C)Cn2cc(C3(O)CCCC3)nn2)oc(C(C)=O)c1C(=O)OC,inactive: 0.907
2,C[C@@H]1CCCCO[C@H](CN(C)C(=O)Nc2ccccc2)[C@H](C)CN([C@H](C)CO)C(=O)c2cc(NS(=O)(=O)c3ccc(Cl)cc3)ccc2O1,inactive: 0.994
3,Cc1noc(C)c1S(=O)(=O)N(C)C[C@@H]1Oc2ccc(NC(=O)CCN3CCOCC3)cc2CC(=O)N([C@@H](C)CO)C[C@H]1C,inactive: 0.999
4,C[C@H](CO)N1C[C@H](C)[C@H](CN(C)C(=O)N[C@H](C)c2ccccc2)OCc2ccccc2-c2ccccc2C1=O,inactive: 1.01
5,C[C@H](CO)N1C[C@H](C)[C@@H](CN(C)Cc2ccc(C(=O)Nc3ccccc3N)cc2)Oc2ccc(NS(=O)(=O)c3ccc(Cl)cc3)cc2CC1=O,inactive: 1.01
6,C[C@@H]1CN([C@@H](C)CO)C(=O)c2cccc(NS(=O)(=O)c3ccccc3)c2O[C@@H]1CN(C)S(=O)(=O)c1cn(C)cn1,inactive: 1.01
7,CC(C)CC#Cc1cnc2c(c1)C(=O)N([C@@H](C)CO)C[C@H](C)[C@H](CN(C)S(=O)(=O)c1cn(C)cn1)O2,inactive: 0.992
8,C[C@H]1CN([C@@H](C)CO)C(=O)Cc2cc(NS(=O)(=O)c3cn(C)cn3)ccc2O[C@H]1CN(C)C(=O)NC1CCCCC1,inactive: 0.996
9,CCO[C@H]1OC(C(=O)N2CCN(Cc3ccccc3)CC2)=C[C@@H](c2csc3ccccc23)[C@@H]1CCCOC(=O)NCCCCCC(=O)NO,inactive: 0.993
10,CC(C)CNC(=O)[C@@]1(C)c2ccccc2C(=O)N(Cc2cc(C(F)(F)F)cc(C(F)(F)F)c2)[C@H]1c1ccc(CO)cc1,inactive: 0.985
11,C[C@H]1CCc2[nH]c3ccccc3c2C1,inactive: 1.01
12,CC(C)NCCCn1c(Sc2cc3c(cc2I)OCO3)nc2c(N)ncnc21,inactive: 0.984
13,C[C@H](CO)N1C[C@H](C)[C@@H](CN(C)Cc2ccc(-c3ccccc3)cc2)Oc2ccc(NC(=O)c3ccncc3)cc2C1=O,inactive: 0.995
14,CCN(CCO)CCCOc1ccc2c(Nc3cc(CC(=O)Nc4cccc(F)c4)n[nH]3)ncnc2c1,inactive: 1.01
15,Cc1noc(C)c1NC(=O)N(C)C[C@@H]1Oc2c(NC(=O)C3CC3)cccc2C(=O)N([C@@H](C)CO)C[C@@H]1C,inactive: 0.994
16,C[C@@H]1CN([C@@H](C)CO)C(=O)c2cccc(NC(=O)NC3CCCCC3)c2O[C@H]1CN(C)S(C)(=O)=O,inactive: 0.992
17,C[C@@H]1CCCCO[C@H](CN(C)Cc2ccncc2)[C@H](C)CN([C@H](C)CO)C(=O)c2cc(NC(=O)c3ccccc3)ccc2O1,inactive: 0.993
18,COc1ccc(CN(C)C[C@H]2Oc3ccc(NS(=O)(=O)c4cn(C)cn4)cc3C(=O)N([C@H](C)CO)C[C@@H]2C)cc1,inactive: 0.96
19,CC(C)NC(=O)N(C)C[C@H]1Oc2cc(C#Cc3cccc(F)c3)ccc2S(=O)(=O)N([C@H](C)CO)C[C@@H]1C,inactive: 1.04

row,SMILES,relative growth
1,Cc1ccc(S(=O)(=O)N(C)C[C@H]2OCCCC[C@@H](C)Oc3ccc(NC(=O)Nc4ccccc4)cc3C(=O)N([C@H](C)CO)C[C@H]2C)cc1,inactive: 1
2,C[C@@H]1CCCCO[C@@H](CN(C)S(=O)(=O)c2cn(C)cn2)[C@H](C)CN([C@H](C)CO)C(=O)c2cc(NS(=O)(=O)c3ccc(F)cc3)ccc2O1,inactive: 1.02
3,CC(C)NC(=O)Nc1ccc2c(c1)C(=O)N([C@H](C)CO)C[C@@H](C)[C@H](CN(C)C(=O)NC1CCCCC1)O2,inactive: 0.97
4,C[C@@H]1CN([C@@H](C)CO)C(=O)c2cccc(NC(=O)Nc3ccccc3)c2O[C@H]1CN(C)S(=O)(=O)c1cn(C)cn1,inactive: 1.01
5,C[C@@H]1CN([C@@H](C)CO)C(=O)c2cc(NC(=O)CCC(F)(F)F)ccc2O[C@@H](C)CCCCO[C@@H]1CN(C)C(=O)C1CCCCC1,inactive: 0.992
6,COc1ccc2c3c(n(c2c1)C)[C@@H](CO)N(C[C@]13CCN(CC1)C(=O)c1ccccc1)C(=O)Nc1ccccc1F,inactive: 1.03
7,C[C@@H]1CCCCO[C@@H](CN(C)Cc2ccncc2)[C@@H](C)CN([C@H](C)CO)C(=O)c2cc(NC(=O)CCCCCC(=O)Nc3ccccc3N)ccc2O1,inactive: 0.966
8,C[C@@H]1CN([C@@H](C)CO)C(=O)c2ccccc2-c2ccccc2CO[C@@H]1CN(C)Cc1cccc(C(F)(F)F)c1,inactive: 1.05
9,C[C@H]1CCCCO[C@H](CN(C)C(=O)CCCN(C)C)[C@@H](C)CN([C@@H](C)CO)C(=O)c2cc(NC(=O)Nc3ccc(F)cc3)ccc2O1,inactive: 1.03
10,C1CCC(C(CC2CCCCN2)C2CCCCC2)CC1.O=C(O)C=CC(=O)O (configuration not stated),inactive: 0.52
11,CN(c1c[nH]c(=O)[nH]c1=O)C1CCCCC1,inactive: 1.03
12,C[C@@H]1CCCCO[C@H](CN(C)S(=O)(=O)c2ccc(F)cc2)[C@@H](C)CN([C@H](C)CO)C(=O)c2cc(NC(=O)Cc3ccccc3)ccc2O1,inactive: 0.953
13,CC(C)NC(=O)Nc1ccc2c(c1)CC(=O)N([C@@H](C)CO)C[C@H](C)[C@H](CN(C)C(=O)NC1CCCCC1)O2,inactive: 0.929
14,Cc1ccc(S(=O)(=O)N(C)C[C@H]2OCCCC[C@H](C)Oc3ccc(NS(=O)(=O)c4ccc(F)cc4)cc3C(=O)N([C@H](C)CO)C[C@@H]2C)cc1,inactive: 1.03
15,C[C@H]1CN([C@@H](C)CO)C(=O)c2cc(NC(=O)NC3CCCCC3)ccc2O[C@H]1CN(C)S(C)(=O)=O,inactive: 1.01
16,COc1ccccc1NC(=O)N(C)C[C@@H]1Oc2ncc(C#CCN(C)C)cc2C(=O)N([C@H](C)CO)C[C@@H]1C,inactive: 1
17,C[C@H]1CCCCO[C@@H](CN(C)Cc2ccc(C(=O)O)cc2)[C@@H](C)CN([C@@H](C)CO)C(=O)c2cc(NC(=O)Nc3ccc(F)cc3)ccc2O1,inactive: 1.02
18,C[C@@H]1CN([C@H](C)CO)C(=O)c2cc(NC(=O)Nc3ccc4c(c3)OCO4)ccc2O[C@@H](C)CCCCO[C@@H]1CN(C)CC1CCCCC1,inactive: 0.993
